In the supplement of paper PMC4723716:
± gives the uncertainty stated by the source. Whole data set: some 9,900 compounds, median “viability index relative to DMSO control” near 1, cut for the lowest 2% near 0.85. This is one part of the list.

Each compound was assayed on Plasmodium falciparum NF54 stage V gametocytes (assay: viability index relative to DMSO control (fraction); higher = less gametocyte killing). Details: 2.5 µM, library set: Broad Institute DOS, incubation time: 72 h.
Summary of the method: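 P. falciparum NF54 stage V gametocytes in serum-free screening medium (0.75% gametocytemia, 1.25% hematocrit, 10 µl) were incubated with compound at 2.5 µM in 1,536-well plates for 72 hr at 37°C under low oxygen. Then 3 µl of 2.5 µM MitoTracker Red CMXRos plus 0.13% saponin was added for one to two hours. One field per well was imaged, 20–70 µm2 red particles were counted, and the viability index was the count divided by the plate mean of DMSO wells.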

Row | Structure (SMILES) | viability index
1 | N#Cc1cccc(-c2ccc3c(c2)[C@H]2[C@H](CCN2C(=O)CN2CCOCC2)[C@@H](CO)N3)c1 | 1.087 ± 0.0067
2 | CNC[C@@H]1Oc2ccc(NC(=O)CCC(F)(F)F)cc2C(=O)N([C@H](C)CO)C[C@@H]1C | 1.03 ± 0.01
3 | COc1cccc(S(=O)(=O)N2C[C@@H](O)COC[C@H]3O[C@H](CC(=O)NCCCN4CCOCC4)CC[C@@H]32)c1 | 1.08 ± 0.073
4 | O=S(=O)(c1cccc(F)c1)N1CC[C@@H]2[C@H]1c1cc(C#Cc3ccccc3F)ccc1N[C@@H]2CO | 1.062 ± 0.0015
5 | CN1C(=O)c2cc(NC(=O)c3cccc(F)c3)ccc2OC[C@H]2O[C@@H](CC(=O)NCc3ccccc3Cl)CC[C@H]21 | 1 ± 0.16
6 | C[C@@H]1CN([C@@H](C)CO)S(=O)(=O)c2ccc(C#CC(C)(C)O)cc2O[C@H]1CN(C)Cc1ccc(F)cc1 | 0.896 ± 0.032
7 | O=C(CN1CCOCC1)N1CCCCN2[C@H](CO)[C@H](c3ccc(Br)cc3)[C@H]2C1 | 0.989 ± 0.016
8 | COc1ccccc1CNC(=O)C[C@@H]1C[C@H]2c3cc(NC(=O)C4CCC4)ccc3O[C@H]2[C@@H](CO)O1 | 1.07 ± 0.086
9 | O=C([C@@H]1N[C@@H]2c3ccc(-c4ccc(F)cc4)c(=O)n3C[C@@H]2[C@H]1CO)N1CCc2ccccc2C1 | 1.06 ± 0.055
10 | CN(C)CC(=O)N1[C@@H](C#N)[C@@H](c2ccccc2-c2ccc(C(=O)N(C)C)cc2)[C@@H]1CO | 1.11 ± 0.024
11 | COc1ccc2c3c([nH]c2c1)[C@H](CO)N(C[C@]31CN(C1)S(=O)(=O)c1cccs1)C(C)=O | 0.938 ± 0.043
12 | O=C(Cc1ccccn1)N1[C@@H]2CNc3ccccc3[C@@H]2[C@@H]1CO | 1 ± 0.029
13 | CC(C)NC(=O)NCC[C@H]1CC[C@H](NS(=O)(=O)c2ccc(Oc3ccccc3)cc2)[C@H](CO)O1 | 1.14 ± 0.02
14 | Cc1ccc(S(=O)(=O)Nc2ccc3c(c2)C(=O)N([C@@H](C)CO)C[C@@H](C)[C@@H](CN(C)S(=O)(=O)c2cccs2)OCCCC[C@@H](C)O3)cc1 | 1.13 ± 0.23
15 | CCC(=O)N1C[C@H](O)COC[C@@H]2O[C@@H](CC(=O)NCc3ccc(Oc4ccccc4)cc3)CC[C@H]21 | 1.07 ± 0.039
16 | C[C@@H]1CN([C@H](C)CO)C(=O)CCCn2cc(nn2)CO[C@H]1CN(C)C(=O)Nc1cccc(C(F)(F)F)c1 | 0.996 ± 0.07
17 | N#C[C@H]1N[C@H](CO)[C@@H]1c1ccc(/C=C/c2ccccc2)cc1 | 1.104 ± 0.005
18 | C[C@H](CO)N1C[C@H](C)[C@H](CN(C)Cc2ccccc2C(F)(F)F)OCc2ccccc2-c2ccccc2C1=O | 1 ± 0.015
19 | Cc1cccc(-c2ccc([C@H]3[C@@H](CO)N4C(=O)CN(C(=O)c5ccc6c(c5)OCO6)C[C@@H]34)cc2)c1 | 1.04 ± 0.023
20 | O=C1CCCn2cc(nn2)COCC2CCCN12 (stereo unspecified) | 1.01 ± 0.044
21 | CC(C)[C@H]1C(=O)N[C@@H](c2ccc(F)cc2)C/C=C/C[C@H](C)Oc2ccccc2C(=O)N1C.CC(C)[C@H]1C(=O)N[C@@H](c2ccc(F)cc2)C/C=C\C[C@H](C)Oc2ccccc2C(=O)N1C | 1.07 ± 0.019
22 | CN1C(=O)c2cc(NC(=O)c3cccc(Cl)c3)ccc2OC[C@H]2O[C@H](CC(=O)NC3CCCCC3)CC[C@H]21 | 1.02 ± 0.043
23 | O=C(NC[C@H]1[C@H](c2ccccc2)[C@@H](CO)N1Cc1cccnc1)c1ccccn1 | 1.09 ± 0.1

Row | Structure (SMILES) | viability index
24 | C[C@@H]1CN([C@H](C)CO)C(=O)CCCn2nncc2CO[C@@H]1CN(C)CC1CCCCC1 | 1.03 ± 0.032
25 | CCCN(C)C[C@@H]1OCCCC[C@@H](C)Oc2ccc(NC(=O)CCCN(C)C)cc2C(=O)N([C@H](C)CO)C[C@H]1C | 1.1 ± 0.16
26 | COc1ccc2c3c([nH]c2c1)[C@H](CO)N(C[C@]31CCN(CC1)C(=O)c1cnccn1)C(=O)NC(C)C | 1.01 ± 0.018
27 | CCCNC(=O)N1CC(=O)N2[C@H](CO)[C@H](c3ccc(-c4ccc(F)cc4)cc3)[C@H]2C1 | 1.01 ± 0.018
28 | C[C@@H]1CN([C@@H](C)CO)C(=O)c2ccccc2-c2ccccc2CO[C@H]1CN(C)C(=O)[C@H]1CCCN1C | 1.05 ± 0.03
29 | CCC(=O)Nc1ccc2c(c1)C(=O)N(C)C[C@H](OC)[C@@H](C)CN(C(=O)Cc1cccnc1)[C@H](C)CO2 | 1.11 ± 0.083
30 | CO[C@H](CN(C)Cc1cc(F)ccc1F)[C@H](C)CN([C@@H](C)CO)S(=O)(=O)c1ccc(C)cc1 | 1.07 ± 0.12
31 | O=C(c1cccnc1)N1CC(=O)N2[C@H](CO)[C@H](c3ccc(-c4ccccc4F)cc3)[C@H]2C1 | 1.04 ± 0.041
32 | C/C=C/c1ccc([C@H]2[C@@H](CO)N(CCC(F)(F)F)C23CN(C(=O)CC2CC2)C3)cc1 | 0.991 ± 0.085
33 | CCC(=O)N1[C@H](C#N)[C@@H](c2ccccc2-c2ccccc2)[C@@H]1CO | 1.14 ± 0.039
34 | COc1ccc(C(=O)N2C[C@@H]3[C@H](c4ccccc42)[C@H](CO)N3Cc2ccccc2Cl)cc1 | 1 ± 0.04
35 | CC[C@H]1C/C=C\C[C@@H](C(C)C)NC(=O)CCC(=O)N1 | 1 ± 0.096
36 | CO[C@@H]1CC[C@@H]2CCN(C)C(=O)[C@@H](C)CN(C)C(=O)c3cc(C#N)ccc3OC[C@H]1O2 | 0.976 ± 0.1
37 | C/C=C/c1ccc([C@@H]2[C@@H](C#N)N(c3nc(CC)cs3)[C@@H]2CO)cc1 | 1.09 ± 0.013
38 | C[C@@H]1CN([C@H](C)CO)C(=O)CCCn2nncc2CO[C@@H]1CN(C)Cc1cccc2c1OCCCO2 | 0.98 ± 0.043
39 | COc1cccc(S(=O)(=O)N2[C@@H]3CNC[C@H]2[C@@H]3c2ccc(/C=C/c3ccccc3)cc2)c1 | 0.99 ± 0.022
40 | C[C@H](CO)N1C[C@H](C)[C@@H](CN(C)Cc2ccc(Cl)c(Cl)c2)Oc2ccc(NC(=O)CCCN(C)C)cc2C1=O | 0.916 ± 0.13
41 | N#Cc1ccc(-c2ccc([C@H]3[C@H](CO)N4C(=O)CNC[C@@H]34)cc2)cc1 | 1.05 ± 0.065
42 | Cc1ccccc1-c1ccc([C@@H]2[C@H]3CNC[C@@H]2N3S(=O)(=O)c2ccccc2)cc1 | 1.088 ± 0.0098
43 | O=C(C[C@H]1CC[C@@H]2NC[C@H](O)COC[C@H]2O1)NC1Cc2ccccc2C1 | 1.05 ± 0.044
44 | CN1C(=O)c2cc(NC(=O)c3cccc(C(F)(F)F)c3)ccc2OC[C@@H]2O[C@@H](CC(=O)NCCN3CCCC3)CC[C@@H]21 | 0.919 ± 0.11
45 | CN1C(=O)c2cc(NC(=O)c3ccc(F)c(F)c3)ccc2OC[C@H]2O[C@@H](CC(=O)Nc3ccc4c(c3)COC4)CC[C@@H]21 | 1.038 ± 0.0069
46 | COc1cccc(C#Cc2ccc([C@H]3[C@H](CO)N4C(=O)CN(C(=O)Cc5cccnc5)C[C@@H]34)cc2)c1 | 0.945 ± 0.048
